In article PMC10668032 one finds binding signal data, which are given here for 172 sequences.

The other results are listed elsewhere or left out. At the low end of the ranking, values are background and their order means little.

The target in the assay is SIX1 homeodomain (reference allele) (UniProt Q15475). Put plainly: universal protein binding microarray. The note with it: Universal all-10-mer PBM (8x60K, AMADID 030236), 300 nM GST-tagged protein, Alexa Fluor 488 anti-GST; buffer, salt, pH and temperature not stated; high values mean tight binding; most listed sequences are background and not binding sites; double strand, one strand shown.
Turning to AATCGTTC, the binding signal is -0.0796 E-score.

For the sequence AACTTCAG, the binding signal is -0.248 E-score. For ATTCTAAG, the binding signal was -0.0788 E-score.

In the case of AAACGTTT, the binding signal was -0.234 E-score.

Regarding GATCTCAA, the binding signal came out at 0.213 E-score. The value for GCTCATCC was 0.219 E-score; that for CCAAGGCC was -0.136 E-score.

As to CATTCCTC, the binding signal was -0.0285 E-score. The value for ACGGTGCC was -0.03 E-score. Consider CCTCCGCG, for which the binding signal is -0.00962 E-score.

For AGTACTAA, the binding signal is -0.0633 E-score. Regarding AACTCATT, the binding signal was -0.278 E-score. The value for GAACAGAC was -0.183 E-score; that for AACGTCGG was -0.107 E-score. In the case of CGACCGCG, the binding signal was -0.167 E-score. With CAACTGGA, the binding signal is -0.102 E-score. The value for TAGCAAAA was -0.00498 E-score. With AAACTCCA the figure was -0.131 E-score; with AACAGTTG, -0.293 E-score. The value for ATGTCAGA was -0.185 E-score; that for ACAAAACA was -0.177 E-score. On to CAAGACCG, for which the binding signal was -0.0497 E-score.

In the case of AACTGAGG, the binding signal was -0.27 E-score.

As to CTAGTATA, the binding signal turned out to be 0.242 E-score. For the sequence GCGAGCGA, the binding signal was -0.0209 E-score. With TCGTAAGA the figure was -0.113 E-score. With ATAAGCAG the figure was 0.173 E-score; with AAAAACGT, -0.252 E-score; with AACGGGGG, -0.0928 E-score.

As to GTCCGCAA, the binding signal was -0.143 E-score.

As for AATCCGAT, the binding signal stood at 0.341 E-score. The value for TGCCTCCA was -0.131 E-score.

Consider ATTGACCG, for which the binding signal was -0.0783 E-score. The value for ATTAGAAG was -0.0415 E-score; that for GGTCAAGA was -0.0244 E-score. With CACCCCAC the figure was 0.263 E-score; with GGGTAACC, 0.018 E-score.

As for GGCTGGTA, the binding signal is 0.0382 E-score.

In the case of CAAGGCGC, the binding signal was -0.185 E-score. The value for TAAGTTCA was -0.0868 E-score; that for GGTAGACC was 0.0487 E-score; that for GCTCAGAC was -0.188 E-score.

For the sequence AACGGTGA, the binding signal was determined as 0.00372 E-score. The value for ATCCTGAG was 0.203 E-score; that for CAATCCGC was 0.29 E-score.

In the case of ATCCTGCA, the binding signal turned out to be 0.241 E-score. With CAGACGCC the figure was -0.0815 E-score; with GTCACCTA, -0.289 E-score; with CCTCTTCA, -0.0697 E-score. On to CTAGATGA, for which the binding signal amounted to 0.0531 E-score. Consider CACCGCCC, for which the binding signal is 0.232 E-score. Regarding CCCTCCGG, the binding signal turned out to be 0.0883 E-score.

CAATCTAC: the binding signal is -0.0217 E-score. The value for ACGGGTCC was -0.261 E-score; that for CCTTGCCC was -0.0136 E-score; that for AGCGGTCA was -0.0652 E-score. With CTATATGA the figure was 0.0957 E-score; with AGTAACTG, -0.199 E-score.

As for TCCAATAA, the binding signal is -0.0192 E-score. The value for ACTAGTTC was -0.104 E-score; that for AGGGATTC was 0.0688 E-score; that for CTCGAAGA was -0.0378 E-score.

Turning to ACGCTCAT, the binding signal is -0.189 E-score.

Regarding CCCTCAAA, the binding signal was -0.0731 E-score. As to CGCCCCAG, the binding signal is -0.0693 E-score. With ACGCCCCG the figure was 0.019 E-score; with CACGCCCA, -0.0229 E-score.

With AAAATCTC, the binding signal was -0.169 E-score.

For the sequence CGATGATC, the binding signal was 0.379 E-score. With CCATTCTC, the binding signal was -0.114 E-score. On to GCTGGTCA, for which the binding signal is -0.182 E-score.

Consider GCTTCGAC, for which the binding signal was -0.175 E-score.

For CTGCCTTA, the binding signal is -0.0395 E-score. The value for CCGAGGTC was -0.145 E-score; that for GCCATCCA was -0.0916 E-score; that for CCCGCACA was 0.164 E-score. As for CCTGTACC, the binding signal was -0.132 E-score. Take GGCCAGAC: the binding signal was -0.139 E-score. The value for ATATCATA was 0.442 E-score; that for ACGCGGGC was 0.12 E-score. With AACCCCAT, the binding signal came to 0.0437 E-score.

Turning to CGTGGTAA, the binding signal is -0.0477 E-score. Consider AAATGGCG, for which the binding signal was -0.128 E-score. With GGCACACC, the binding signal is 0.00434 E-score. With ACCCGTTC the figure was -0.143 E-score; with CAGGAGCA, -0.188 E-score; with CGTTGCAA, -0.111 E-score. With CTCGTTTA the figure was -0.0218 E-score; with ATATATCA, 0.4 E-score; with ACACGTGT, -0.12 E-score. With AGCGGGGC the figure was -0.106 E-score; with GATCAAAA, 0.234 E-score; with AACAAGAC, 0.046 E-score.

AGTAGCAG: the binding signal is -0.0638 E-score. The value for CTCATACC was 0.171 E-score. For the sequence AGCCTTAC, the binding signal was -0.304 E-score. The value for GCTTGTTA was -0.15 E-score.

Regarding ACTTCTAT, the binding signal stood at 0.0346 E-score. Turning to GAGCTCTA, the binding signal was found to be 0.0517 E-score.

For the sequence CAATAGAA, the binding signal is -0.23 E-score. The value for ATTCTTAC was -0.152 E-score; that for CTTACGAA was -0.183 E-score. Consider GTGCGGCA, for which the binding signal is -0.249 E-score. Regarding CACAGATG, the binding signal was -0.00132 E-score. With CATTCGTA the figure was 0.0432 E-score; with GGGGACGA, -0.0701 E-score; with GGTAGGAC, -0.145 E-score. The value for AATAATCA was 0.00143 E-score; that for TCTCACCA was 0.259 E-score.

For the sequence CCAGGGGA, the binding signal was found to be 0.222 E-score. In the case of ATATCAAA, the binding signal turned out to be 0.374 E-score.

With CGCAACCC, the binding signal was -0.13 E-score. With CTCTCCAA the figure was -0.0598 E-score; with AGTATCGC, 0.435 E-score. With AACATGAC the figure was -0.262 E-score; with GATCGAAA, 0.115 E-score; with ATGAACGC, -0.121 E-score. On to ACACGGAG, for which the binding signal is -0.00357 E-score. As to AACCGCGA, the binding signal worked out at 0.0972 E-score. With AGCTCCTG, the binding signal was -0.134 E-score. For AATGAGTC, the binding signal is -0.0364 E-score.

Take AAGCAAGA: the binding signal is -0.228 E-score.

Regarding ACAAAAAT, the binding signal was -0.141 E-score. With ACCCAATG the figure was -0.0245 E-score; with AGTAGAAT, -0.0541 E-score.

For AGATAGTC, the binding signal was found to be 0.172 E-score. In the case of GGACCGTA, the binding signal is -0.164 E-score.

Consider TCCCCCAA, for which the binding signal came out at 0.0285 E-score. With AACGGCTG the figure was -0.179 E-score.

As to ACTGTAAC, the binding signal is -0.121 E-score. With CTGTGGAA the figure was -0.146 E-score. The value for CCAGGGAC was -0.19 E-score; that for AACTTTGA was -0.201 E-score; that for CCGATAAG was -0.0758 E-score.

In the case of GCTAAGAA, the binding signal is -0.0737 E-score. As for ATATGGAT, the binding signal worked out at 0.371 E-score. Regarding AGGCAGCA, the binding signal is -0.211 E-score.

With AAGACTCG, the binding signal is -0.253 E-score. Turning to AAGTTTAT, the binding signal is -0.177 E-score.

In the case of GATGTGGC, the binding signal was -0.113 E-score. The value for ATTCCGAA was -0.0396 E-score; that for CATATGGC was 0.0938 E-score; that for CGAGTATA was 0.29 E-score. The value for CGACGCCG was -0.00713 E-score. The value for AGAGTTAT was 0.0447 E-score; that for AAGAACGG was -0.00726 E-score. AAGATGGC: the binding signal was -0.202 E-score. On to AACCTGAA, for which the binding signal is -0.242 E-score.

As to GCCTACCA, the binding signal is -0.22 E-score. Regarding CATTCTAA, the binding signal was -0.0323 E-score. With GGCGGACC the figure was -0.142 E-score; with CGAAAGAA, -0.207 E-score. For CAAGTTAC, the binding signal was -0.0658 E-score. For ACCCAACA, the binding signal came to 0.079 E-score. With TCGCCCGA the figure was -0.184 E-score.

As to CCACGTGA, the binding signal is -0.103 E-score. On to GTACGACA, for which the binding signal is -0.0887 E-score. With AAGCAGCA the figure was -0.2 E-score; with CCTAGATC, 0.228 E-score; with CGTCAATC, -0.0216 E-score. The value for GGCATCCA was -0.00015 E-score; that for CGGCCAAC was -0.0229 E-score. The value for CCGACACG was 0.0696 E-score. Take GAGTGGGA: the binding signal was 0.045 E-score. With AAGGCGGG the figure was -0.0477 E-score; with GCGTGTAC, 0.0568 E-score; with CAATCTTC, 0.0677 E-score. Regarding GTGGACAA, the binding signal is -0.0874 E-score. As to CCCTGAAG, the binding signal was -0.0367 E-score. The value for TACAGCTA was 0.0416 E-score.

In the case of AACTGTCA, the binding signal was -0.21 E-score.

As for AGCTATGG, the binding signal is -0.142 E-score.
